Measurements as given in publication PMC11805834 (Applied Microbiology and Biotechnology, 2025).

Molecular target: T1, mouse CD80-Fc fusion protein (mouse, UniProt Q00609 38-246)
T1 sequence: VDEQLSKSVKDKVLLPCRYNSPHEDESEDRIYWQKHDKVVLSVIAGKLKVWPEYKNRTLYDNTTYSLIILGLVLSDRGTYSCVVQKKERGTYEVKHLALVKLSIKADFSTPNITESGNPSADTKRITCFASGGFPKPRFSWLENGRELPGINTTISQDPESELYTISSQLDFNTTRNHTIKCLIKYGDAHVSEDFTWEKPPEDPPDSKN
Assay: SPR

B1: Mouse CTLA-4 protein with His tag (receptor)
chain: not shown
For B1, the Kd was 4.21 nM.
